No constants are given. Whether binding was seen depends on the method and setting. Some results given as binding are weak or reduced against the parent protein; the word gives no strength.
Key:
[1] = biological target: T1, KaiC_(S431D&T432D) (KaiCDD) (Thermosynechococcus elongatus BP-1 (printed: Thermocynechococcus elongatus BP-1)) (UniProt Q79V60); assay: native gel or EMSA; monomeric KaiC (5 μM; 1 μM for the concentration series) with KaiB1-94 or 7.5 μM KaiBWT in reaction buffer without ATP, 4 °C, 6 h (KaiC_(C/DD) also at 25 °C); 10 % native gel, CBB, densitometry; both purified
T1 sequence: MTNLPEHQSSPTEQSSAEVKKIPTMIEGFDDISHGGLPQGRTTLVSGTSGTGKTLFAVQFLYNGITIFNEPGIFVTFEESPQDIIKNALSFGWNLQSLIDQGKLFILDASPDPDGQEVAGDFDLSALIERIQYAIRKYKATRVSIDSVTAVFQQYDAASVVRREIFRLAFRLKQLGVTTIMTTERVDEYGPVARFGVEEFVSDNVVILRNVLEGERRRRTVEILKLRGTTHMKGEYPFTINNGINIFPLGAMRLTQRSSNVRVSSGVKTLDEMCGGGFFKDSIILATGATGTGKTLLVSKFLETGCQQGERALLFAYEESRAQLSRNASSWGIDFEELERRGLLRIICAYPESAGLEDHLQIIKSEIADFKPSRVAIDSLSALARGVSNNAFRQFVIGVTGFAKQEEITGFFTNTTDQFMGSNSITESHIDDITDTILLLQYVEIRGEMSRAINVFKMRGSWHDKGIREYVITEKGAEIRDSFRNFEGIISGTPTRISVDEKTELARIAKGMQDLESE

[2] = biological target: T1, KaiC_(S431D&T432D) (KaiCDD) (Thermosynechococcus elongatus BP-1 (printed: Thermocynechococcus elongatus BP-1)); assay: condition: only KaiCDD hexamerised with ATP without Mg2+; native gel or EMSA; KaiCDD hexamerised with ATP without Mg2+ (KaiCDD^6mer (ATP)), with KaiB1-94 in the presence of 1 mM ATP, 4 °C; both purified
[3] = biological target: T1, KaiC_(S431D&T432D) (KaiCDD) (Thermosynechococcus elongatus BP-1 (printed: Thermocynechococcus elongatus BP-1)); assay: native gel or EMSA; KaiCDD hexamerised with Mg-ATPγS, with KaiB1-94 in the presence of 1 mM Mg-ATPγS, 4 °C; both purified
[4] = biological target: T2, N-terminal domain mutant protein of KaiC, residues 1 to 268 (KaiCN) (Thermosynechococcus elongatus BP-1 (printed: Thermocynechococcus elongatus BP-1)) (UniProt Q79V60); assay: SEC; 7.5 μM KaiB1-94 with 2.5 μM KaiCN hexamer and Mg-ATP, 4 °C, 6 h; Superdex 200 in reaction buffer with 0.5 mM ATP and 5 mM MgCl2; KaiB in peak fractions detected by immunoblot; both purified
T2 sequence: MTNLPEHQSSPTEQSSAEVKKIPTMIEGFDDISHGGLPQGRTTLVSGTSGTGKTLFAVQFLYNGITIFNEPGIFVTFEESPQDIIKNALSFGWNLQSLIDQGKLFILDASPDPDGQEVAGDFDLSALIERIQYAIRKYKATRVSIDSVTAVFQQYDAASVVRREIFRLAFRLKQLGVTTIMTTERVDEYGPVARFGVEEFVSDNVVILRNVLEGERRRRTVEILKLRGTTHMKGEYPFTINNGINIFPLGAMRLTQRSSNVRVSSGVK

[5] = biological target: T1, KaiC_(S431D&T432D) (KaiCDD) (Thermosynechococcus elongatus BP-1 (printed: Thermocynechococcus elongatus BP-1)); assay: native gel or EMSA; KaiCDD hexamerised with Mg-AMPPNP, with KaiB1-94 in the presence of 1 mM Mg-AMPPNP, 4 °C; both purified
[6] = biological target: T3, KaiC_(K53H/DD) (Thermosynechococcus elongatus BP-1 (printed: Thermocynechococcus elongatus BP-1)) (UniProt Q79V60); assay: condition: only KaiC hexamerised with Mg-ATP (5 μM KaiB_(1-94), 1 μM KaiC hexamer); native gel or EMSA; KaiC hexamer (formed with Mg-ATP, 1 μM) with 5 μM KaiB1-94 in the presence of Mg-ATP at 4 °C; native PAGE, complex bands checked by second-dimension SDS-PAGE; both purified
T3 sequence: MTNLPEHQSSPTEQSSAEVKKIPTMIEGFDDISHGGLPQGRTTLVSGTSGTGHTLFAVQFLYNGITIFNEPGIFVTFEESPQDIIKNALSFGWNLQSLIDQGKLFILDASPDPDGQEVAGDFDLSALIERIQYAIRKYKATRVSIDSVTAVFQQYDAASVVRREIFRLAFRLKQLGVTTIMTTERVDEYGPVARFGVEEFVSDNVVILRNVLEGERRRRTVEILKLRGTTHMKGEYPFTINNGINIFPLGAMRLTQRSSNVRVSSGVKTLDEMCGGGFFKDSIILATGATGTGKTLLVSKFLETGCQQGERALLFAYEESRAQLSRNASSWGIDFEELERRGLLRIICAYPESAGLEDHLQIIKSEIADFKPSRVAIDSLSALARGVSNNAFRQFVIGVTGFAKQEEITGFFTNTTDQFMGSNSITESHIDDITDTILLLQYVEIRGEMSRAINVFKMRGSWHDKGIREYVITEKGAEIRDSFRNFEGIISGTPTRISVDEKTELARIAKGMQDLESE

[7] = biological target: T4, KaiC_(S431A&T432A) (KaiCAA) (Thermosynechococcus elongatus BP-1 (printed: Thermocynechococcus elongatus BP-1)) (UniProt Q79V60); assay: native gel or EMSA; KaiC hexamer (formed with Mg-ATP, 1 μM) with 5 μM KaiB1-94 in the presence of Mg-ATP at 4 °C; native PAGE, complex bands checked by second-dimension SDS-PAGE; both purified
T4 sequence: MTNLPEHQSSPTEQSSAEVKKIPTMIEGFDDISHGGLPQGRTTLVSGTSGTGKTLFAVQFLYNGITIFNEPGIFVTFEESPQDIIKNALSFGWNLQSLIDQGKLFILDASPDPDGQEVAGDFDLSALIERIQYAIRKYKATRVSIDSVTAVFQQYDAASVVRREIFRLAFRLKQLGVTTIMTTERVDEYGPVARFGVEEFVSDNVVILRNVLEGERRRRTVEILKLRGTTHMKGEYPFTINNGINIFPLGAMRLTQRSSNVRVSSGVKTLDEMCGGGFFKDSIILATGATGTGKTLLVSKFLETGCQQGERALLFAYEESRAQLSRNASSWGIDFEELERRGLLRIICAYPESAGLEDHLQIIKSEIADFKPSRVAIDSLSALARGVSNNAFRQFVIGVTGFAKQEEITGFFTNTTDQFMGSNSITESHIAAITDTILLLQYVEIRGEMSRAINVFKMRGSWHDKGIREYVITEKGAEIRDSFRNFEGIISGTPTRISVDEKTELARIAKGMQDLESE

[8] = biological target: T2, N-terminal domain mutant protein of KaiC, residues 1 to 268 (KaiCN) (Thermosynechococcus elongatus BP-1 (printed: Thermocynechococcus elongatus BP-1)); assay: as above
[9] = biological target: T1, KaiC_(S431D&T432D) (KaiCDD) (Thermosynechococcus elongatus BP-1 (printed: Thermocynechococcus elongatus BP-1)); assay: condition: only 1 mM ATP without MgCl2, KaiCDD in the preformed complex with KaiB_(1-94); native gel or EMSA; preformed KaiB1-94-KaiC monomer complex (15 μM KaiB1-94, 5 μM KaiC, 4 °C, 16 h), then 1 mM ATP without MgCl2, 4 °C, 6 h; both purified

B1: wild-type KaiB (KaiBWT) (natural protein, UniProt Q79V61 1-108, looked up)
chain: MAPLRKTYVLKLYVAGNTPNSVRALKTLNNILEKEFKGVYALKVIDVLKNPQLAEEDKILATPTLAKVLPPPVRRIIGDLSNREKVLIGLDLLYEEIGDQAEDDLGLE
notes: KaiB, Thermosynechococcus elongatus BP-1, wild type, subunit of 108 amino acid residues; also called KaiBWT^4mer; KaiB^4mer
Q: With B1 as the binder, how does the binding [1] read?
A: binds weakly

B2: mutant KaiB with a C-terminal deletion of residues 95 to 108 (KaiB1-94) (domain or fragment, UniProt Q79V61 1-94, looked up)
chain: MAPLRKTYVLKLYVAGNTPNSVRALKTLNNILEKEFKGVYALKVIDVLKNPQLAEEDKILATPTLAKVLPPPVRRIIGDLSNREKVLIGLDLLY
notes: KaiB, Thermosynechococcus elongatus BP-1, residues 1-94 (C-terminal residues 95-108 deleted)
Q: With B2 as the binder, how does the binding [2] read?
A: no binding

Q: And the binding [3]?
A: no binding (condition: KaiCDD hexamerised with Mg-ATPγS)

Q: And the binding [4]?
A: binds weakly

Q: And the binding [5]?
A: no binding (condition: KaiCDD hexamerised with Mg-AMPPNP)

Q: And the binding [6]?
A: no binding

Q: And the binding [7]?
A: no binding (tested: 5 μM KaiB_(1-94), 1 μM KaiC hexamer)

Q: And the binding [8]?
A: no binding (condition: KaiCN hexamerised with Mg-ATP)

B3: KaiC_(S431D&T432D) (KaiCDD) (natural protein, UniProt Q79V60 1-518, looked up)
chain: MTNLPEHQSSPTEQSSAEVKKIPTMIEGFDDISHGGLPQGRTTLVSGTSGTGKTLFAVQFLYNGITIFNEPGIFVTFEESPQDIIKNALSFGWNLQSLIDQGKLFILDASPDPDGQEVAGDFDLSALIERIQYAIRKYKATRVSIDSVTAVFQQYDAASVVRREIFRLAFRLKQLGVTTIMTTERVDEYGPVARFGVEEFVSDNVVILRNVLEGERRRRTVEILKLRGTTHMKGEYPFTINNGINIFPLGAMRLTQRSSNVRVSSGVKTLDEMCGGGFFKDSIILATGATGTGKTLLVSKFLETGCQQGERALLFAYEESRAQLSRNASSWGIDFEELERRGLLRIICAYPESAGLEDHLQIIKSEIADFKPSRVAIDSLSALARGVSNNAFRQFVIGVTGFAKQEEITGFFTNTTDQFMGSNSITESHIDDITDTILLLQYVEIRGEMSRAINVFKMRGSWHDKGIREYVITEKGAEIRDSFRNFEGIISGTPTRISVDEKTELARIAKGMQDLESE
notes: KaiC, Thermosynechococcus elongatus BP-1, subunit of 518 amino acid residues, aspartate at the two phosphorylation sites; Used as monomer (KaiC^1mer, no ATP) and as hexamer (KaiC^6mer; with Mg-ATP, ATP, Mg-AMPPNP, Mg-ATPγS or Mg-ADP-AlFx); the assay tells which; also called KaiCDD^1mer; KaiCDD^6mer
Q: Which binding [9] does the source give for B3 here?
A: no binding
